# Test results from the supplement of paper PMC9446081.
# The whole screen tested about 39,000 compounds, of which about 220 (0.56%) showed activity. This is one part of the list.
# Test system: Escherichia coli K-12 BW25113
# Test: relative growth (OD600 normalised to plate interquartile mean) (fraction); higher = less growth inhibition, active = 0.2 or less
# Details: 50 µM; LB; incubation time: overnight (16-24 h)
# 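Further: static incubation at 37 °C against the wild-type strain, values averaged over two biological replicates.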
row,Structure (SMILES),relative growth
1,O=C(C[C@H]1C[C@H]2c3cc(NC(=O)Nc4ccc(C(F)(F)F)cc4)ccc3O[C@H]2[C@H](CO)O1)NCCc1ccccc1,inactive: 1.02
2,COCC(=O)Nc1ccc2c(c1)C(=O)N(C)C[C@H](OC)[C@@H](C)CN(Cc1ccccc1F)[C@H](C)CO2,inactive: 0.991
3,Cc1cc(C(=O)Nc2cccc3c2O[C@H](CN(C)Cc2ccc(Oc4ccccc4)cc2)[C@@H](C)CN([C@@H](C)CO)C3=O)n(C)n1,inactive: 1.01
4,C[C@@H]1CN([C@@H](C)CO)C(=O)c2cc(N(C)C)ccc2O[C@H]1CN(C)S(C)(=O)=O,inactive: 0.985
5,CS(=O)(=O)N1C[C@H]2C[C@@H](F)[C@@H](O)[C@@H]2C1,inactive: 1
6,C[C@@H]1CN([C@@H](C)CO)C(=O)c2cc(NS(=O)(=O)c3cn(C)cn3)ccc2O[C@H]1CN(C)Cc1ccc2c(c1)OCO2,inactive: 1.02
7,CO[C@H]1CN(C)C(=O)c2ccc(NC(=O)CC(F)(F)F)cc2OC[C@@H](C)N(S(=O)(=O)c2cn(C)cn2)C[C@@H]1C,inactive: 1.01
8,C[C@@H]1CN([C@H](C)CO)C(=O)c2cc(NC(=O)Nc3ccc(F)cc3)ccc2O[C@@H](C)CCCCO[C@H]1CN(C)C(=O)Nc1ccc(C(F)(F)F)cc1,inactive: 1
9,C[C@@H]1CCCCO[C@@H](CN(C)C(=O)Cc2ccccc2)[C@@H](C)CN([C@H](C)CO)C(=O)c2cc(NC(=O)c3ccccc3)ccc2O1,inactive: 0.995
10,Cc1noc(C)c1NC(=O)N(C)C[C@H]1Oc2ccc(NC(=O)Cn3cnnn3)cc2C(=O)N([C@@H](C)CO)C[C@@H]1C,inactive: 0.994
11,O=C(NC[C@H]1CCCO1)c1ccc(/C=N/O)nc1,inactive: 1.02
12,C[C@@H]1CN([C@H](C)CO)C(=O)c2cc(NC(=O)c3ccccc3)ccc2O[C@@H](C)CCCCO[C@@H]1CN(C)S(=O)(=O)c1ccc(F)cc1,inactive: 1.03
13,CN1CCN(C(=O)C[C@H]2CC[C@@H]3[C@H](COc4ccc(NC(=O)c5cccs5)cc4C(=O)N3C)O2)CC1,inactive: 0.984
14,COc1ccc(NC(=O)Nc2ccc3c(c2)C(=O)N([C@H](C)CO)C[C@H](C)[C@H](CN(C)S(=O)(=O)c2ccc(Cl)cc2)OCCCC[C@H](C)O3)cc1,inactive: 1.04
15,COc1ccc(CN(C)C[C@H]2Oc3ccc(NC(=O)Nc4cccc5ccccc45)cc3C(=O)N([C@H](C)CO)C[C@H]2C)cc1,inactive: 1.02
16,C[C@@H]1CN([C@H](C)CO)S(=O)(=O)c2ccc(C#Cc3ccc(F)cc3)cc2O[C@H]1CN(C)S(=O)(=O)c1cn(C)cn1,inactive: 1.02
17,C[C@H]1CN([C@@H](C)CO)C(=O)c2cccc(NC(=O)c3nc4ccccc4s3)c2O[C@@H]1CN(C)Cc1ccc(Cl)c(Cl)c1,inactive: 1.03
18,COc1ccc(NC(=O)N(C)C[C@@H]2OCCCC[C@@H](C)Oc3ccc(NC(=O)NC4CCCCC4)cc3C(=O)N([C@H](C)CO)C[C@@H]2C)cc1,inactive: 0.97

row,Structure (SMILES),relative growth
1,Cn1cnc(S(=O)(=O)N2C[C@H](O)COC[C@H]3O[C@@H](CC(=O)NCc4cc(F)cc(F)c4)CC[C@@H]32)c1,inactive: 1.01
2,C[C@@H]1CN([C@@H](C)CO)C(=O)c2cc(NS(=O)(=O)c3ccc(Cl)cc3)ccc2O[C@@H](C)CCCCO[C@H]1CN(C)Cc1ccc(C(=O)O)cc1,inactive: 1.04
3,C[C@H]1CN([C@@H](C)CO)C(=O)c2ccccc2-c2ccccc2CO[C@H]1CN(C)C(=O)Nc1cccc(C(F)(F)F)c1,inactive: 0.985
4,CO[C@@H]1CN(C)C(=O)c2cc(NC(=O)C3CCOCC3)ccc2OC[C@@H](C)N(Cc2cccnc2)C[C@H]1C,inactive: 0.985
5,COc1ccccc1CNC(=O)C[C@H]1CC[C@H]2[C@@H](COC[C@H](O)CN2C(=O)Nc2ccc(Cl)cc2)O1,inactive: 0.894
6,C[C@@H]1CN([C@@H](C)CO)C(=O)Cc2cc(NC(=O)CCN3CCOCC3)ccc2O[C@@H]1CN(C)S(=O)(=O)c1cn(C)cn1,inactive: 1
7,CC(C)NC(=O)N(C)C[C@H]1Oc2ccc(NS(=O)(=O)c3ccc(Cl)cc3)cc2C(=O)N([C@H](C)CO)C[C@H]1C,inactive: 1.03
8,COC(=O)C[C@@H]1CC[C@@H]2[C@H](COC[C@H](O)CN2S(=O)(=O)c2cn(C)cn2)O1,inactive: 0.992
9,COc1ccccc1CNC(=O)C[C@H]1C[C@@H]2c3cc(NC(=O)NC4CCCC4)ccc3O[C@@H]2[C@@H](CO)O1,inactive: 1.02
10,C[C@@H]1CN([C@@H](C)CO)C(=O)c2cc(NC(=O)CCC(F)(F)F)ccc2O[C@H]1CN(C)C(=O)Nc1ccc(C(F)(F)F)cc1,inactive: 0.969
11,COc1ccc(S(=O)(=O)Nc2ccc3c(c2)C(=O)N([C@H](C)CO)C[C@H](C)[C@H](CN(C)Cc2ccc(Cl)c(Cl)c2)OCCCC[C@@H](C)O3)cc1,inactive: 1.05
12,CC(C)c1cccc(NC(=O)C[C@H]2CC[C@H]3[C@@H](COc4ccc(NC(=O)c5ccc(C#N)cc5)cc4C(=O)N3C)O2)c1,inactive: 0.994
13,CCCNC(=O)Nc1ccc2c(c1)OC[C@H](C)N(Cc1ccc(-c3ccccn3)cc1)C[C@@H](C)[C@H](OC)CN(C)C2=O,inactive: 0.983
14,O=C(C[C@H]1C[C@@H]2c3cc(NS(=O)(=O)c4ccc(F)cc4)ccc3O[C@@H]2[C@@H](CO)O1)NCc1cccnc1,inactive: 0.954
15,C[C@@H]1CN([C@H](C)CO)C(=O)c2cc(C#CCN(C)C)cnc2O[C@@H]1CN(C)C(=O)c1cnccn1,inactive: 1.02
16,C[C@H]1CCCCO[C@@H](CN(C)C(=O)Nc2ccc(C(F)(F)F)cc2)[C@@H](C)CN([C@@H](C)CO)C(=O)c2cc(NC(=O)C3CCCCC3)ccc2O1,inactive: 1
17,COCCCNC(=O)[C@@]1(Sc2ccc(C)cc2)CC(=O)N(C2Cc3ccccc3C2)[C@@H]1c1ccc(CO)cc1I,inactive: 1.02
18,COc1ccc(NC(=O)Nc2ccc3c(c2)C(=O)N([C@@H](C)CO)C[C@H](C)[C@H](CN(C)Cc2ccc(C(F)(F)F)cc2)OCCCC[C@H](C)O3)cc1,inactive: 1.03
